{"source": "the supplement of paper PMC4604168 (melanoma cell lines)", "note": "Some of the results follow. Many values rest on one well or one pass, so single values are uncertain.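 Further: cell number obtained by counting DAPI-stained nuclei in high-throughput microscope images with image analysis software, screen run in 1,536-well plates.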", "data": [{"test_system": "COLO792", "experiment": "cell count relative to DMSO control; melanoma cells; higher = more viable cells", "details": "library dose: low library concentration; 72 h", "units": {"cell count": "%"}, "values": [{"smiles": "Nc1ccn([C@@H]2O[C@H](CO)[C@@H](O)C2(F)F)c(=O)n1", "note": "[gemcitabine] + O=c1cc(-c2cccc3c2Sc2ccccc2S3)oc(N2CCOCC2)c1 [KU55933] (first compound 0.0004 µM, partner dose 1 µM)", "cell count": 95.4}, {"smiles": "Nc1nc(F)nc2c1ncn2[C@@H]1O[C@H](CO)[C@@H](O)[C@@H]1O", "note": "[fludarabine] + Oc1cc(-c2nc(-c3ccccc3)[nH]c2-c2ccncc2)ccc1Cl [L779450] (first compound 0.2 µM, partner dose 0.2 µM)", "cell count": 88.6}, {"smiles": "Nc1ccn([C@@H]2O[C@H](CO)[C@@H](O)C2(F)F)c(=O)n1", "note": "[gemcitabine] + CCN(CC)CCCCNc1ncc2cc(-c3cc(OC)cc(OC)c3)c(NC(=O)NC(C)(C)C)nc2n1 [PD173074] (first compound 0.0004 µM, partner dose 0.1 µM)", "cell count": 86}, {"smiles": "CC(=O)O[C@@]12CO[C@@H]1C[C@H](O)[C@@]1(C)C(=O)[C@H](O)C3=C(C)[C@@H](OC(=O)[C@H](O)[C@@H](NC(=O)OC(C)(C)C)c4ccccc4)C[C@@](O)([C@@H](OC(=O)c4ccccc4)[C@H]21)C3(C)C", "note": "[Docetaxel] + CCCCCCCCCCCC1=C(O)C(=O)C=C(O)C1=O [Embelin] (first compound 0.0001 µM, partner dose 1.2 µM)", "cell count": 29.9}, {"smiles": "Nc1nc(F)nc2c1ncn2[C@@H]1O[C@H](CO)[C@@H](O)[C@@H]1O", "note": "[fludarabine] + O=c1cc(-c2cccc3c2Sc2ccccc2S3)oc(N2CCOCC2)c1 [KU55933] (first compound 0.2 µM, partner dose 1 µM)", "cell count": 90.3}, {"smiles": "CO[C@H]1C[C@@H]2CC[C@@H](C)[C@@](O)(O2)C(=O)C(=O)N2CCCC[C@H]2C(=O)O[C@H]([C@H](C)C[C@@H]2CC[C@@H](OCCO)[C@H](OC)C2)CC(=O)[C@H](C)/C=C(\\C)[C@@H](O)[C@@H](OC)C(=O)[C@H](C)C[C@H](C)/C=C/C=C/C=C/1C", "note": "[everolimus] + O=c1cc(-c2cccc3c2Sc2ccccc2S3)oc(N2CCOCC2)c1 [KU55933] (first compound 0.02 µM, partner dose 1 µM)", "cell count": 50.9}, {"smiles": "CC(=O)O[C@@]12CO[C@@H]1C[C@H](O)[C@@]1(C)C(=O)[C@H](O)C3=C(C)[C@@H](OC(=O)[C@H](O)[C@@H](NC(=O)OC(C)(C)C)c4ccccc4)C[C@@](O)([C@@H](OC(=O)c4ccccc4)[C@H]21)C3(C)C", "note": "[Docetaxel] + COc1ccc2c(c1)CCC1C2CCC2(C)C(NCCCCCCN3C(=O)C=CC3=O)CCC12 [U73122] (first compound 0.0001 µM, partner dose 0.4 µM)", "cell count": 34.6}, {"smiles": "CC(=O)O[C@@]12CO[C@@H]1C[C@H](O)[C@@]1(C)C(=O)[C@H](O)C3=C(C)[C@@H](OC(=O)[C@H](O)[C@@H](NC(=O)OC(C)(C)C)c4ccccc4)C[C@@](O)([C@@H](OC(=O)c4ccccc4)[C@H]21)C3(C)C", "note": "[Docetaxel] + O=C(O)C(=O)Nc1sc2c(c1C(=O)O)CCNC2 [TCS401] (first compound 0.0001 µM, partner dose 1.66667 µM)", "cell count": 31.1}, {"smiles": "CO[C@H]1C[C@@H]2CC[C@@H](C)[C@@](O)(O2)C(=O)C(=O)N2CCCC[C@H]2C(=O)O[C@H]([C@H](C)C[C@@H]2CC[C@@H](OCCO)[C@H](OC)C2)CC(=O)[C@H](C)/C=C(\\C)[C@@H](O)[C@@H](OC)C(=O)[C@H](C)C[C@H](C)/C=C/C=C/C=C/1C", "note": "[everolimus] + c1cc(-c2cnn3cc(-c4ccc(OCCN5CCCCC5)cc4)cnc23)ccn1 [Dorsomorphin] (first compound 0.02 µM, partner dose 0.4 µM)", "cell count": 57.7}, {"smiles": "CC(=O)c1c(C)c2cnc(Nc3ccc(N4CCNCC4)cn3)nc2n(C2CCCC2)c1=O", "note": "[palbociclib] + Oc1cc(-c2nc(-c3ccccc3)[nH]c2-c2ccncc2)ccc1Cl [L779450] (first compound 0.04 µM, partner dose 0.2 µM)", "cell count": 65}, {"smiles": "Nc1ncn([C@H]2C[C@H](O)[C@@H](CO)O2)c(=O)n1", "note": "[decitabine] + O=C(Nc1ccccc1)c1cc([N+](=O)[O-])ccc1Cl [GW9662] (first compound 0.1 µM, partner dose 2 µM)", "cell count": 91.6}, {"smiles": "Nc1nc(F)nc2c1ncn2[C@@H]1O[C@H](CO)[C@@H](O)[C@@H]1O", "note": "[fludarabine] + c1cc(-c2cnn3cc(-c4ccc(OCCN5CCCCC5)cc4)cnc23)ccn1 [Dorsomorphin] (first compound 0.2 µM, partner dose 0.4 µM)", "cell count": 79.4}, {"smiles": "CO[C@H]1C[C@@H]2CC[C@@H](C)[C@@](O)(O2)C(=O)C(=O)N2CCCC[C@H]2C(=O)O[C@H]([C@H](C)C[C@@H]2CC[C@@H](OCCO)[C@H](OC)C2)CC(=O)[C@H](C)/C=C(\\C)[C@@H](O)[C@@H](OC)C(=O)[C@H](C)C[C@H](C)/C=C/C=C/C=C/1C", "note": "[everolimus] + O=C(Nc1ccccc1)c1cc([N+](=O)[O-])ccc1Cl [GW9662] (first compound 0.02 µM, partner dose 2 µM)", "cell count": 55.4}, {"smiles": "CC(=O)c1c(C)c2cnc(Nc3ccc(N4CCNCC4)cn3)nc2n(C2CCCC2)c1=O", "note": "[palbociclib] + COC(=O)c1sccc1S(=O)(=O)Nc1ccc(Nc2ccccc2)cc1OC [GSK0660] (first compound 0.04 µM, partner dose 1 µM)", "cell count": 65.2}, {"smiles": "CO[C@H]1C[C@@H]2CC[C@@H](C)[C@@](O)(O2)C(=O)C(=O)N2CCCC[C@H]2C(=O)O[C@H]([C@H](C)C[C@@H]2CC[C@@H](OCCO)[C@H](OC)C2)CC(=O)[C@H](C)/C=C(\\C)[C@@H](O)[C@@H](OC)C(=O)[C@H](C)C[C@H](C)/C=C/C=C/C=C/1C", "note": "[everolimus] + Cn1cc(/C=C2\\C(=O)Nc3cccnc32)c2ccccc21 [GW441756] (first compound 0.02 µM, partner dose 0.4 µM)", "cell count": 48.8}, {"smiles": "CO[C@H]1C[C@@H]2CC[C@@H](C)[C@@](O)(O2)C(=O)C(=O)N2CCCC[C@H]2C(=O)O[C@H]([C@H](C)C[C@@H]2CC[C@@H](OCCO)[C@H](OC)C2)CC(=O)[C@H](C)/C=C(\\C)[C@@H](O)[C@@H](OC)C(=O)[C@H](C)C[C@H](C)/C=C/C=C/C=C/1C", "note": "[everolimus] + CCN(CC)CCCCNc1ncc2cc(-c3cc(OC)cc(OC)c3)c(NC(=O)NC(C)(C)C)nc2n1 [PD173074] (first compound 0.02 µM, partner dose 0.1 µM)", "cell count": 45.1}, {"smiles": "Nc1ccn([C@@H]2O[C@H](CO)[C@@H](O)C2(F)F)c(=O)n1", "note": "[gemcitabine] + O=C1NC(=O)/C(=C/c2ccc(-c3ccc(F)cc3O)o2)S1 [AS252424] (first compound 0.0004 µM, partner dose 1 µM)", "cell count": 97.7}, {"smiles": "Nc1ccn([C@@H]2O[C@H](CO)[C@@H](O)C2(F)F)c(=O)n1", "note": "[gemcitabine] + Oc1nc(-c2ccc(C(F)(F)F)cc2)nc2c1CSCC2 [XAV939] (first compound 0.0004 µM, partner dose 2 µM)", "cell count": 79.4}, {"smiles": "Nc1ccn([C@@H]2O[C@H](CO)[C@@H](O)C2(F)F)c(=O)n1", "note": "[gemcitabine] + O=S(=O)(c1ccccc1)N(CC(F)(F)F)c1ccc(C(O)(C(F)(F)F)C(F)(F)F)cc1 [T0901317] (first compound 0.0004 µM, partner dose 1.4 µM)", "cell count": 97.6}, {"smiles": "Nc1nc(F)nc2c1ncn2[C@@H]1O[C@H](CO)[C@@H](O)[C@@H]1O", "note": "[fludarabine] + CCc1ccc(CCOc2ccc(CC3SC(=O)NC3=O)cc2)nc1 [pioglitazone] (first compound 0.2 µM, partner dose 2 µM)", "cell count": 91}, {"smiles": "CC(=O)c1c(C)c2cnc(Nc3ccc(N4CCNCC4)cn3)nc2n(C2CCCC2)c1=O", "note": "[palbociclib] + Cc1cc([N+](=O)[O-])ccc1NS(=O)(=O)c1cc(Cl)ccc1Cl [FH535] (first compound 0.04 µM, partner dose 1 µM)", "cell count": 56.1}, {"smiles": "CC(=O)O[C@@]12CO[C@@H]1C[C@H](O)[C@@]1(C)C(=O)[C@H](O)C3=C(C)[C@@H](OC(=O)[C@H](O)[C@@H](NC(=O)OC(C)(C)C)c4ccccc4)C[C@@](O)([C@@H](OC(=O)c4ccccc4)[C@H]21)C3(C)C", "note": "[Docetaxel] + N#Cc1c(O)c2c(-c3ccc(-c4ccccc4O)cc3)csc2[nH]c1=O [A769662] (first compound 0.0001 µM, partner dose 2 µM)", "cell count": 33.5}, {"smiles": "Nc1ncn([C@H]2C[C@H](O)[C@@H](CO)O2)c(=O)n1", "note": "[decitabine] + COC(=O)c1sccc1S(=O)(=O)Nc1ccc(Nc2ccccc2)cc1OC [GSK0660] (first compound 0.1 µM, partner dose 1 µM)", "cell count": 72.6}, {"smiles": "CO[C@H]1C[C@@H]2CC[C@@H](C)[C@@](O)(O2)C(=O)C(=O)N2CCCC[C@H]2C(=O)O[C@H]([C@H](C)C[C@@H]2CC[C@@H](OCCO)[C@H](OC)C2)CC(=O)[C@H](C)/C=C(\\C)[C@@H](O)[C@@H](OC)C(=O)[C@H](C)C[C@H](C)/C=C/C=C/C=C/1C", "note": "[everolimus] + COc1ccc2c(c1)CCC1C2CCC2(C)C(NCCCCCCN3C(=O)C=CC3=O)CCC12 [U73122] (first compound 0.02 µM, partner dose 0.4 µM)", "cell count": 58.3}]}]}
